Experimental data reported in publication PMC12040169 (PLOS Biology, 2025).
This is one part of the list.

The compounds below were run on T1, C. trachomatis L2/434/Bu expressing GFP (CTL2-GFP). Conditions: total inclusion area; 28.5 h, 10 µM; inhibitor.
T1 construct: L2/434/Bu GFP intracellular growth in HeLa cells
Design: species or system HeLa; C. trachomatis total inclusion area by high-content imaging, normalised to DMSO
How it was run: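 Bulk GFP and resorufin signals were read first. Wells were then fixed, stained with Hoechst and imaged to detect GFP inclusions and host nuclei. MICs followed the previously described calculation.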

Row | Structure (SMILES) | % of control remaining
1 | O=C(O)C1CCCCC1C(=O)NCCCN1CCOCC1 (stereo not drawn) [CBK286903] | 50.0468
2 | COc1ccc(-c2nc3c(n2O)CCc2c-3no[n+]2[O-])cc1OC [CBK262350] | 98.023
3 | Cc1ccc(-c2ccccc2CC2(C(=O)O)CCN(Cc3ccccc3F)CC2)c(C)c1 [CBK286418] | 87.6344
4 | O=C(Cn1nnc2ccccc2c1=O)NC1CCN2CCCCC12 (stereo not drawn) [CBK305589] | 98.0541
5 | Cn1c(=O)c2c(nc(CN3CCOCC3)n2CC(=O)c2ccccc2)n(C)c1=O [CBK269195] | 119.805
6 | CC(C)[C@@H](CO)Nc1cncc(-c2cccc(Cl)c2)n1 [CBK037261] | 101.223
7 | NC(=O)C1CCN(CC(=O)Nc2ccc([N+](=O)[O-])cc2C(=O)c2ccccc2)CC1 [CBK265782] | 118.968
8 | COc1ccc(C2CCN(C(=O)C3CCCO3)CC2)cc1 (stereo not drawn) [CBK285473] | 83.6011
9 | Cc1ccc2cc(S(=O)(=O)Nc3cccc(C(=O)O)c3)ccc2c1 [CBK299812] | 81.8648
10 | Cc1nc(COc2ccc(Cl)cc2)sc1C(=O)N1CCC1 [CBK306353] | 27.2402
11 | COC(=O)CCc1ccc(S(=O)(=O)N2CCCN(Cc3cc(Cl)cc(Cl)c3)CC2)cc1 [CBK062982] | 70.7123
12 | CC1CCc2c(sc(NC(=O)c3cccs3)c2C#N)C1 (stereo not drawn) [CBK304625] | 83.1087
13 | CC(C)NC(=O)c1cc(C2CCN(C(=O)CCCc3ccc(F)cc3)C2)nc2ccccc12 (stereo not drawn) [CBK285921] | 111.369
14 | O=C(CSc1n[nH]c(=S)s1)NCCc1ccccc1 [CBK023445] | 74.8979
15 | O=C(/C=C/c1c[nH]c2ccccc12)c1ccc(C(=O)/C=C/c2c[nH]c3ccccc23)cc1 [CBK264224] | 113.523
16 | Cc1ccc(-c2cc(C(=O)NCc3ccc(-c4ccc(C(N)=O)c(C)n4)cc3)no2)cc1 [CBK285644] | 92.0829
17 | O=C(CCN1CCN(C(c2ccccc2)c2ccccc2)CC1)c1ccccc1 [CBK074788] | 98.8082
18 | COCCn1c(CO)nnc1[C@H]1C[C@@H](NC(=O)c2ccc(C)cc2F)C1 [CBK307296] | 87.2593
19 | Cc1cc(C)n(CC(C)CNC(=O)Cc2csc(-c3ccco3)n2)n1 (stereo not drawn) [CBK305628] | 66.7952
20 | O=C(NCc1cccnc1)C(=O)Nc1ccc(F)cc1F [CBK269481] | 80.26
21 | CCC(C)NC(=O)Cn1cccc2cc(C3CCCNC3)nc1-2 (stereo not drawn) [CBK285087] | 102.515
22 | CCn1ncc(CN2CCCC(CCC(=O)N3CCN(C)CC3)C2)c1C (stereo not drawn) [CBK306951] | 81.0796
23 | O=C(Nc1cccc(CCc2ccccn2)c1)Nc1cccc2ccccc12 [CBK262337] | 100.865
24 | CN(C)c1ccc(-n2ccn(S(=O)(=O)c3ccc(Oc4ccccc4)cc3)c2=O)cc1 [CBK106608] | 118.292
25 | CN(Cc1ccc(O)cc1)C(=O)NC1CCCc2c1cnn2CCO (stereo not drawn) [CBK305354] | 76.6398
26 | O=C(O)C1C2CCC(O2)C1C(=O)Nc1ccc(S(=O)(=O)N2CCc3ccccc32)cc1 (stereo not drawn) [CBK268137] | 110.057

Row | Structure (SMILES) | % of control remaining
27 | Cc1cc(C)nc(Nc2nc3ccccc3[nH]2)n1 [CBK263539] | 105.692
28 | O=C(O)c1ccc(C(=O)c2c3c(=O)n(-c4ccccc4C(=O)O)c(=O)c3cc3c(=O)n(-c4ccccc4C(=O)O)c(=O)c23)cc1 [CBK261183] | 80.8936
29 | COCCNC(=O)c1ccc(-c2cccc(Cl)c2Cl)nc1N(C)C [CBK106057] | 79.9287
30 | Clc1cccc(Nc2cncc(-c3cccc4ccccc34)n2)c1 [CBK065764] | 102.74
31 | COc1ccc2nc(N/C(N)=N/C(=O)COc3ccc(Cl)cc3)nc(C)c2c1 [CBK263924] | 51.8719
32 | Cc1csc(S(=O)(=O)Cc2nnc(C)n2C2CC2)n1 [CBK305494] | 23.5622
33 | COc1cc(NC(=O)N(CCC#N)C2CCCCC2)cc(OC)c1OC [CBK156380] | 101.046
34 | Cc1cc2ncc3c(n2n1)NC(c1ccc(Cl)cc1Cl)NC3=O (stereo not drawn) [CBK291167] | 104.164
35 | Fc1ccc(CN(Cc2ccco2)C2CCN(c3ccc4c(c3)OCO4)CC2)cc1 [CBK286197] | 85.5748
36 | COCC(=O)N[C@H]1C[C@H]2C(=O)Nc3ccc(-c4ccsc4)cc3C(=O)N2C1 [CBK289360] | 90.8379
37 | COc1ccc(C(C)C)cc1-c1nccnc1NCc1ccc2c(c1)OCO2 [CBK036683] | 75.583
38 | CCC1CCCCN1C(=O)c1ccc(C(C)(C)C)cc1 (stereo not drawn) [CBK076644] | 87.9858
39 | Cn1c(CN2CCN(c3ccc(C#N)cn3)CC2)nnc1C1CC1 [CBK304781] | 43.6689
40 | COc1c(C)cc(S(=O)(=O)NCCN2CCOCC2)c(C)c1C [CBK269893] | 87.1101
41 | Cc1nc(C)n(CCC(=O)NC(C)c2cccs2)n1 (stereo not drawn) [CBK282224] | 90.9869
42 | CCN(Cc1ccncc1)C(=O)NCc1cnc(C)cn1 [CBK155128] | 90.3862
43 | Cc1cccc(CC(=O)N2CCCC2c2n[nH]cc2-c2ccncc2)c1 (stereo not drawn) [CBK283447] | 102.044
44 | O=C(c1cn2cc(-c3cccs3)n(CC3CC3)c(=O)c2n1)N1CCCC1 [CBK306756] | 51.6573
45 | O=C(NC(C(=O)N/N=C/c1ccccc1O)c1n[nH]c(=O)c2ccccc12)c1ccccc1 (stereo not drawn) [CBK261117] | 89.4326
46 | Cc1cc(C)n2nc(S(N)(=O)=O)c(C#N)c2n1 [CBK025767] | 91.9216
47 | CCCN1CCC(NC(=O)Cn2c(C3CC3)nc3ccccc32)CC1 [CBK304917] | 49.417
48 | CN1CCN(C(=O)c2n[nH]c3c2CCCC3)C(Cc2ccc(-c3cccs3)cc2)C1=O (stereo not drawn) [CBK285812] | 112.891
49 | CCSc1nnc(-c2cccc(C)c2)n1CC1CCCO1 (stereo not drawn) [CBK085413] | 49.9754
50 | Cc1ccc(S(=O)(=O)Nc2c(C(=O)N3CCN(C)CC3)[nH]c3ccccc23)cc1[N+](=O)[O-] [CBK050060] | 108.254
51 | O=C(NC1CC1)c1ccc(-n2cccn2)c(C#Cc2ccccn2)c1 [CBK282272] | 97.5992
52 | O=C(Cc1ccc(F)cc1)N1CCn2c(nnc2C2CC2)C1 [CBK283688] | 99.5862

Row | Structure (SMILES) | % of control remaining
53 | CC1(C)COC(=O)N1C1CCN(C(=O)c2ccno2)CC1 [CBK044383] | 92.7431
54 | CC(C)(C)c1csc(NC(=O)C2CC(=O)N(C3CCCC3)C2)n1 (stereo not drawn) [CBK175544] | 108.4
55 | Cc1ccc(C(=O)NC(Cc2cccs2)c2ccccn2)c(=O)[nH]1 (stereo not drawn) [CBK285210] | 77.7001
56 | Cn1nnc2cc(C(=O)N(CCO)c3ccccc3)ccc21 [CBK266522] | 122.587
57 | CSCCCN1CCn2nc(CNc3cnccn3)cc2C1 [CBK307136] | 113.492
58 | CCC(CN1CCCC1)NC(=O)Cc1ccc(OC)c(C)c1 (stereo not drawn) [CBK282752] | 49.3597
59 | CN1CCN(CCCNC(=O)N2CCN(c3ccc(F)cc3)CC2)CC1 [CBK156386] | 96.49
60 | Cc1ncsc1C(=O)N1CCCC(c2cc3cnccc3[nH]2)C1 (stereo not drawn) [CBK283461] | 100.522
61 | COc1cc(/C=N/NC(=O)CC#N)ccc1OCc1ccccc1Cl [CBK263932] | 106.457
62 | Cc1cc(C)n(CCCC(=O)N2CCc3ncc(Cl)cc3C2)n1 [CBK284852] | 77.7434
63 | Cc1cc(C)n(CC2CCCN2C(=O)CCCc2ccccn2)n1 (stereo not drawn) [CBK305920] | 121.049
64 | O=C(O)C(Cc1c[nH]c2ccccc12)N1Cc2ccccc2C1=O (stereo not drawn) [CBK287056] | 88.9516
65 | O=C(CSc1nnc(-c2ccccc2)n1C1CCCCC1)Nc1ccc(Cl)cc1Cl [CBK267424] | 97.1435
66 | CC(C)C(=O)NC(NC(=S)Nc1sc2c(c1C(N)=O)CCCC2)C(Cl)(Cl)Cl (stereo not drawn) [CBK261050] | 86.7316
67 | CC(=O)NCCSc1cncc(NC(C)C)n1 [CBK105291] | 99.0983
68 | O=C(O)CCC(C(=O)O)N1C(=O)/C(=C\C(Cl)=C/c2ccc([N+](=O)[O-])cc2)SC1=S (stereo not drawn) [CBK261011] | 103.495
69 | O=C(CN(c1cccc(Cl)c1)S(=O)(=O)c1ccc(Cl)cc1)NCc1ccco1 [CBK265356] | 97.0114
70 | COc1ccc([C@@]23CC[C@@H](NC(=O)Nc4ccnc5ccccc45)C[C@@H]2N(C)CC3)cc1OC [CBK045699] | 100.591
71 | CC(=O)NCCN(Cc1ccc(S(=O)(=O)N2CCOC2=O)cc1)Cc1ccoc1 [CBK024460] | 93.6918
72 | CCOC(=O)c1ccc(NC(=S)NC(=O)c2ccc(C)c(C)c2)cc1 [CBK264004] | 107.441
73 | Cc1csc2c(C3CCN(C(=O)c4ccncc4)CC3)nc(C)n12 [CBK285243] | 74.2635
74 | O=C(NCCCOc1ccccc1)N1CCN(S(=O)(=O)c2ccc(C(F)(F)F)cc2)CC1 [CBK296686] | 69.593
75 | Cc1c(S(=O)(=O)NC(C)CCCC(C)(C)O)sc2ccc(Cl)cc12 (stereo not drawn) [CBK062467] | 88.4748
76 | Cc1cc(Cl)ccc1OCC(=O)NC(=S)Nc1cccc(-c2nc3ccccc3s2)c1 [CBK264802] | 116.426
77 | CN1CCC(C(=O)NC(=O)NC2CCCCC2)CC1 [CBK034825] | 82.389
78 | CC(=O)c1ccc(-c2cc(N3CCN(C(=O)c4ccco4)CC3)ncn2)s1 [CBK036999] | 101.016
